Measured values from publication PMC10726135.
This is one part of the list. At the low end of the ranking, values are background and their order means little. The protein was read in a cell extract, so binding may be indirect.

Biological target: T1, HNF4alpha8 (COS-7 nuclear extract) (UniProt P41235-5)
T1 sequence: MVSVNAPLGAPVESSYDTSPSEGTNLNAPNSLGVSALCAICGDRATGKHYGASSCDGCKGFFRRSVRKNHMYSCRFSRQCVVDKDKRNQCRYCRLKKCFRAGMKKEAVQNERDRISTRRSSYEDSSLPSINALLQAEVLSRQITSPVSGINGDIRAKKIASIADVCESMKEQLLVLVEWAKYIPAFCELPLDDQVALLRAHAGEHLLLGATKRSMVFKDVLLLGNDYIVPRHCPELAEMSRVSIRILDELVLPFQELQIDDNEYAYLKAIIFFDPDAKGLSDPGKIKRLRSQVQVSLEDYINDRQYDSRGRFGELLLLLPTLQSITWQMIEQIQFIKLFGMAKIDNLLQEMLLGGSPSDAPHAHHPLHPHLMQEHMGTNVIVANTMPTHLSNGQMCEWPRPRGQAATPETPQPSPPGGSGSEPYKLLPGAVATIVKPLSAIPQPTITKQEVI
Test: protein-binding microarray
Conditions: COS-7 nuclear extract on double-stranded Agilent 4x180k PBM; binding buffer, salt, pH and temperature not given; high values mean tight binding; double strand, one strand shown; sequences stand for … in …GCCTAGGGAGATTAGAGTATCGGTCGA

Row | Sequence | binding signal (log2 normalized intensity)
1 | TATAGGTGTTTATAAAGTTGGGAAAAGTAA | 0.612
2 | GTCAAACAAAAGAAAATGTGCCCTTTGGAC | 7.26
3 | CAACGGCTCTGCATATGCCAACAGGTGCTC | -1.34
4 | TCCTTGTACCTGCGACTGAGCCCTAAGAAA | -1.35
5 | ACCGGTCTTTCCACTTGGGCTTCCTCATCT | -1.09
6 | GACAAACAATAGATAGGACAGTGGTCTTTA | -0.358
7 | TTGGACTTCAGCCCAGGCTGATTATTCGTT | 2.86
8 | TTGCCCACCAATGATCAAAGGTTAGTCTTA | 4.52
9 | CCCGCCTTTGACACAGGCGACCTTCGCTCG | 6.06
10 | GGGTTAGGGTTAGGGTAGGGTTAGGGTTAG | 1.2
11 | CCATGAGTACCAGGTCAAAAGTTCAAACTT | 4.46
12 | AGCCCCCTTTCCCTTATCTTTGTTATCTGT | 2.37
13 | CACAAGCTTCCCTTTCTACTGCCAGCCAGG | -1.31
14 | TCCAAACCGGTCTTTCCACTTGGGCTTCCT | -1.35
15 | TTTAGCAACTGGTATGTTAGATTAGTGTGC | 1.2
16 | GGGGCCCCATCGACCTTTGCTCCCGACTCT | 8.88
17 | TATGTGACATGGACATTCTATGGAATACAG | -0.226
18 | TTTGTTCCTAGCCACCATGCTCGGCTGCCT | -1.27
19 | AAGGAATGTAAGATGTTTGGGCGGGGAAAA | -0.993
20 | CTCCCTTCCACCTTTGCCCTCCAAACTGAG | 4.48
21 | CGCTCCTCCCACGTCGCTGCCGCAGATCCC | -1.28
22 | CAATATCACATACCAGTAAAAACAACTGCC | -1.3
23 | AGGCCCAGGGCAAGGACTCTAAAGGGAATA | -1.36
24 | CTAGAAACAGAGCCCAAGGCAAAGCAGATG | -1.3

Row | Sequence | binding signal (log2 normalized intensity)
25 | GTCCGCCACTAGCAACAGCTGCAGTGAAAT | -1.32
26 | TACTTTTGCTCTGTTGAAGAATAAGACCGA | 0.259
27 | AGTCTGGAGGGGTGCGAAGGTCGAGGCCAG | 3.39
28 | GGCAAGTATGGTAAGGTCGACCTTTAAACG | 6.95
29 | AGGGAGGAGGGGAAGAAAGGAATGTGCCTG | -1.31
30 | CTGGGCCTTAAAGCATGACAAAATAACGAA | -1.27
31 | AGGCAACAATGCCTTGTGTACTGAGCAGGG | -0.0081
32 | CTTCTTTGCTTAAGCATAGCAAAAGTGACC | 3.13
33 | TGCCATTAAACACCTTATTTGGTCATGTTT | 1.55
34 | TGTCTTGCTGATAAAGGGTGTGAGAGAGAA | -0.25
35 | AAACATCAAGACAGGTGAGAGAGCTGCATT | -1.16
36 | CAGCTGTTCCGTGTTCCAGAGCCTCCAAAG | -1.3
37 | ACCCCAGCCTGCCCTCCTAGGGACAGGTGC | 2.94
38 | TGTAGAGGCCAGAGGTCGTGTCTCCATTCA | 1.62
39 | GATAGCTAAACCAGATACGTGGGTCTGGTA | -1.27
40 | GAATAAAACCTCCCCCAAACCAAAGAGAAA | 4.96
41 | TTATCATGTGGTATTAACATGTAAATATGA | 1.36
42 | ATTGTAATCTTCAGCTGCCTTTTGCCAGGC | -0.00915
43 | GTTTTCTCTGAGTTTTGAGTGTGTTTCTTG | 1.78
44 | CTAAAAACATTGTGGAGCTCATGTAAGGTC | 1.92
45 | GTTCACCAGGAAGCAAGACAATGCACTCAT | -1.45
46 | GCACAGCCTCCCTGTGGGGGAGGTGCAGAG | -1.35
47 | GTCAGCCCTGGTCCAGGCCATGCAACAGCC | -1.27
48 | CAGGACCACACATTCCATTACTGCAGAGGC | -1.31

Row | Sequence | binding signal (log2 normalized intensity)
49 | AGATACTGAACCTTGCACTATTGACCCAGT | 4.44
50 | TTGGTGGGAGGAGGGGGGAGGGTCGGCAAC | -1.4
51 | CCCTGGGGTAATAAAAGTGTACAAAGCACA | -0.451
52 | AAATGCCAATAGTGGCTTTGTTGATAACAA | -0.978
53 | TTAATGAAATACAGTAGACTTTTTTTTTCT | 0.548
54 | CACAGGTGACCTCTGGCCACTGCAGGGAGG | 2.88
55 | GTGTACTGAGCAGGGTCCAACCCACAGGGG | 2.15
56 | CAATCAGTGTGTTGACATTTGAACCCAACC | 4.71
57 | GGGTCATCAGGGGTCCTGGCAGCACCTGAA | -1.04
58 | ATTGCGGGCTGGTTGGCACGCTTAGGGAAC | -1.3
59 | AGGACTTGCGGTGTTACACTTGTTTAAATG | 1.28
60 | ATATTGACATTCCAGCCTCCAGCTACTCAC | -1.27
61 | AGTTACTTAAGCCATCTGCTGCCTCAGTTT | -1.38
62 | TTCTCAGGCATCTCTGGGGGTCAGAAGTCC | 5.38
63 | CCTAGCAAACAATGAGGACGTGTGTGTTCT | 1.6
64 | AACATGGGCTTAAGACAAGAATGTGAGATA | -1.32
65 | CAAAGGTCACTTAGTCCCTAAGTCTTTCAA | 3.68
66 | TTCCTGGAAATCCCGAAATAGAGCCAAACA | -1.34
67 | TATAGGGGAGGTCCTAAAGAGGATATCCTG | -1.16
68 | AGCCCAGTCTTGGCCCCACCGGTCACGACC | 1.06
69 | CTGCCTAACAGGAGTGTTTTTTTCACCTGG | 0.868
70 | AAGGTGCTACCACGAGAGTAGAGAGTTGTT | -1.03
71 | CTTTTCTGCTTTTGGAATTTGACCTCATTT | 7.55
72 | TTTGTTCATATCGGCTCCATCTAGCAGCCC | -1.31

Row | Sequence | binding signal (log2 normalized intensity)
73 | GGCAAATTGAAACCTTGCGCAAGTCCCAGA | -1.33
74 | ACAAAATACAAGTCGTAAAGACCTTGCTGA | -1.17
75 | ACCTGCCAAAGAAGAAAACAATGACCTCTG | 4.18
76 | ACCTTTTTTTCATGCAAATTTCCGTGTCGA | 1.44
77 | AGCAGTTCACACTCCCACCAGCATGGTGAT | -1.37
78 | GAGAGTAAGTTTCTGTCTCACCTGTAAATG | -0.263
79 | CTGGAATGATACGCCGGCCAATCCGGCTGG | -1.1
80 | AGGATACCTAGTAGGCACAAAGGTGCAAAG | 0.717
81 | AGAGAAAGGGTCAATGTGATCAGGTGTGGG | 0.791
82 | ATCACCATCAGATCTGGGTGTGCCATTCTT | 0.839
83 | AAATCTCTCTGGTCAAAGGGTAAAGATTAT | 3.14
84 | CAAAGTCCAAAGCCTCATCTGAGATAAGGC | 2.64
85 | AAGTGACCCTCAGACACACAGTCCACAGGC | 0.576
86 | CAGGTTCATTCTTTAAGTGTGGGGTGACTG | 1.47
87 | AACATGCTGCAGGCATTTCTGGAATTCTCT | -1.41
88 | GCAGAGGTCAATGTCCACACCCCAGTTTCA | 5.24
89 | GTCACAGTATTCATTCCCCTAGTATATTGG | 1.96
90 | TTTTGATTGCTTAGGCTCTTGTTATGAAAC | 0.557
91 | GCATGCCCCGCGCCGCGTCCCTTCCCCCGG | 3.62
92 | TGTGGAATGGCAACATGTGGGCAAATAGGA | -1.05
93 | CTGTCTGCTGAGGATGTGGCCCCGAGATAA | 2.25
